Measured values taken from the supplement of paper PMC12297408.
Where a name gives a salt, the structure may show the parent alone. The whole screen tested about 1,300 compounds, of which about 40 (3%) showed activity. The list shows a part of the results.

System: Plasmodium falciparum NF54/iGP1_RE9H ulg8 stage V gametocytes
Assay: gametocyte viability (luciferase signal relative to DMSO control) (% of DMSO control); higher = less gametocytocidal activity, active = 50 or less
Details: exposure time: 72 h
How it was run: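 NF54/iGP1_RE9Hulg8 stage V gametocytes (day 12; ~2.5% gametocytemia, 3% hematocrit) in medium with 0.5% Albumax II were added to 96-well plates of nanolitre-spotted compounds (10 mM DMSO stocks), giving 10 µM or 1 µM, one well each. Plates were incubated 72 h at 37 °C. Then 90 µl was mixed with 10 µl D-luciferin (30 mg/ml) and luminescence was read on an IVIS Lumina II. Viability is relative to the mean of plate DMSO vehicle controls.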

CN(C)CCOC(C)(c1ccccc1)c1ccccn1 (configuration not stated) [Doxylamine succinate]
gametocyte viability (concentration: 1 µM): inactive: 87.8 | gametocyte viability (concentration: 10 µM): inactive: 87.7

CC(=O)c1ccc2c(c1)N(CCCN(C)C)c1ccccc1S2 [Acetopromazine maleate salt]
gametocyte viability (concentration: 1 µM): inactive: 94.6 | gametocyte viability (concentration: 10 µM): inactive: 92.5

CC(C)(C#N)c1cc(Cn2cncn2)cc(C(C)(C)C#N)c1 [Anastrozole]
gametocyte viability (concentration: 1 µM): inactive: 77.6 | gametocyte viability (concentration: 10 µM): active: 45.8

Oc1c(I)cc(Cl)c2cccnc12 [Clioquinol]
gametocyte viability (concentration: 1 µM): inactive: 85.9 | gametocyte viability (concentration: 10 µM): inactive: 84.4

Nc1ccn([C@H]2CC[C@@H](CO)O2)c(=O)n1 [Zalcitabine]
gametocyte viability (concentration: 1 µM): inactive: 86.3 | gametocyte viability (concentration: 10 µM): inactive: 85.7

CN(C(=O)C(Cl)Cl)c1ccc(OC(=O)c2ccco2)cc1 [Diloxanide furoate]
gametocyte viability (concentration: 1 µM): inactive: 82 | gametocyte viability (concentration: 10 µM): inactive: 86

CN1[C@@H]2CC[C@H]1C[C@@H](OC(=O)c1c[nH]c3ccccc13)C2 [Tropisetron HCl]
gametocyte viability (concentration: 1 µM): inactive: 81.3 | gametocyte viability (concentration: 10 µM): inactive: 79.4

Cc1cccc(C)c1OCC(C)N (configuration not stated) [Mexiletine hydrochloride]
gametocyte viability (concentration: 1 µM): inactive: 86.6 | gametocyte viability (concentration: 10 µM): inactive: 88.4

Nc1c2c(nc3ccccc13)CCCC2O (racemic) [Hydroxytacrine maleate (R,S)]
gametocyte viability (concentration: 1 µM): inactive: 101 | gametocyte viability (concentration: 10 µM): inactive: 93.6

N#Cc1cc(NC(=O)C(=O)O)c(Cl)c(NC(=O)C(=O)O)c1 [Lodoxamide]
gametocyte viability (concentration: 1 µM): inactive: 91.8 | gametocyte viability (concentration: 10 µM): inactive: 102

COc1ccccc1OCC(O)CO (configuration not stated) [Guaifenesin]
gametocyte viability (concentration: 1 µM): inactive: 81.8 | gametocyte viability (concentration: 10 µM): inactive: 83.6

NC[C@@H]1O[C@H](O[C@H]2[C@@H](O)[C@H](O[C@@H]3[C@@H](O)[C@H](N)C[C@H](N)[C@H]3O[C@H]3O[C@H](CO)[C@@H](O)[C@H](O)[C@H]3N)O[C@@H]2CO)[C@H](N)[C@@H](O)[C@@H]1O [Paromomycin sulfate]
gametocyte viability (concentration: 1 µM): inactive: 81.2 | gametocyte viability (concentration: 10 µM): inactive: 86.6

Nc1nc(CC(=O)Nc2ccc(CCNC[C@H](O)c3ccccc3)cc2)cs1 [Mirabegron]
gametocyte viability (concentration: 1 µM): inactive: 91.9 | gametocyte viability (concentration: 10 µM): inactive: 90.8

CC(=O)[C@H]1CC[C@H]2[C@@H]3C=CC4=CC(=O)CC[C@@]4(C)[C@@H]3CC[C@]12C [Dydrogesterone]
gametocyte viability (concentration: 1 µM): inactive: 84.5 | gametocyte viability (concentration: 10 µM): inactive: 91.7

Oc1c(Cl)cc(Cl)c(Cl)c1Cc1c(O)c(Cl)cc(Cl)c1Cl [Hexachlorophene]
gametocyte viability (concentration: 1 µM): inactive: 75.9 | gametocyte viability (concentration: 10 µM): inactive: 75.7

Cc1c(N(C)C)c(=O)n(-c2ccccc2)n1C [Amidopyrine]
gametocyte viability (concentration: 1 µM): inactive: 99 | gametocyte viability (concentration: 10 µM): inactive: 95.3

COc1ccc(/C=C/C(=O)Nc2ccccc2C(=O)O)cc1OC [Tranilast]
gametocyte viability (concentration: 1 µM): inactive: 68.5 | gametocyte viability (concentration: 10 µM): active: 40.9

CCOC(=O)C1=C(COCCN)NC(C)=C(C(=O)OC)C1c1ccccc1Cl (configuration not stated) [Amlodipine]
gametocyte viability (concentration: 1 µM): inactive: 82.2 | gametocyte viability (concentration: 10 µM): inactive: 63.1

CN(C)C(=O)C(CCN1CCC(O)(c2ccc(Cl)cc2)CC1)(c1ccccc1)c1ccccc1 [Loperamide hydrochloride]
gametocyte viability (concentration: 1 µM): inactive: 84 | gametocyte viability (concentration: 10 µM): inactive: 79

Cc1cccc(C)c1NC(=O)C(C)N (configuration not stated) [Tocainide hydrochloride]
gametocyte viability (concentration: 1 µM): inactive: 91.8 | gametocyte viability (concentration: 10 µM): inactive: 90.2

CCCCc1cc2ccccc2c(OCCN(C)C)n1 [Dimethisoquin hydrochloride]
gametocyte viability (concentration: 1 µM): inactive: 86.5 | gametocyte viability (concentration: 10 µM): inactive: 91.9

CC(C(=O)O)c1ccc2c(c1)[nH]c1ccc(Cl)cc12 (configuration not stated) [Carprofen]
gametocyte viability (concentration: 1 µM): inactive: 78.8 | gametocyte viability (concentration: 10 µM): inactive: 81.6

C[C@H]1O[C@@H](O[C@H]2[C@@H](O)C[C@H](O[C@H]3[C@@H](O)C[C@H](O[C@H]4CC[C@@]5(C)[C@H](CC[C@@H]6[C@@H]5C[C@@H](O)[C@]5(C)[C@@H](C7=CC(=O)OC7)CC[C@]65O)C4)O[C@@H]3C)O[C@@H]2C)C[C@H](O)[C@@H]1O [Digoxin]
gametocyte viability (concentration: 1 µM): inactive: 71.3 | gametocyte viability (concentration: 10 µM): inactive: 90.4

COc1cc([S+](C)[O-])ccc1-c1nc2cccnc2[nH]1 (configuration not stated) [Sulmazole]
gametocyte viability (concentration: 1 µM): inactive: 88.9 | gametocyte viability (concentration: 10 µM): inactive: 88

CC(C(=O)O)c1ccc(-c2ccccc2)c(F)c1 (configuration not stated) [Flurbiprofen]
gametocyte viability (concentration: 1 µM): inactive: 92.9 | gametocyte viability (concentration: 10 µM): inactive: 84.3

O=C(OCC(O)CO)c1ccccc1Nc1ccnc2cc(Cl)ccc12 (configuration not stated) [Glafenine hydrochloride]
gametocyte viability (concentration: 1 µM): inactive: 81 | gametocyte viability (concentration: 10 µM): inactive: 87.6

C#Cc1cccc(Nc2ncnc3cc(OCCOC)c(OCCOC)cc23)c1 [Erlotinib]
gametocyte viability (concentration: 1 µM): inactive: 70.7 | gametocyte viability (concentration: 10 µM): active: 37.2

Cc1onc(-c2ccccc2Cl)c1C(=O)N[C@@H]1C(=O)N2[C@@H]1SC(C)(C)[C@@H]2C(=O)O [Cloxacillin sodium salt]
gametocyte viability (concentration: 1 µM): inactive: 97.9 | gametocyte viability (concentration: 10 µM): inactive: 93.9

N[C@@H](C(=O)N[C@@H]1C(=O)N2C(C(=O)O)=C(Cl)CC[C@H]12)c1ccccc1 [Loracarbef]
gametocyte viability (concentration: 1 µM): inactive: 96.3 | gametocyte viability (concentration: 10 µM): inactive: 91.2

CC(C)Nc1cccnc1N1CCN(C(=O)c2cc3cc(NS(C)(=O)=O)ccc3[nH]2)CC1 [Delavirdine]
gametocyte viability (concentration: 1 µM): inactive: 92.5 | gametocyte viability (concentration: 10 µM): inactive: 95.8

CN[C@@H]1[C@H](O)[C@H](NC)[C@H]2O[C@@]3(O)C(=O)C[C@@H](C)O[C@H]3O[C@@H]2[C@H]1O [Spectinomycin dihydrochloride]
gametocyte viability (concentration: 1 µM): inactive: 82.6 | gametocyte viability (concentration: 10 µM): inactive: 84.7

NS(=O)(=O)c1cc2c(cc1Cl)NC(C(Cl)Cl)NS2(=O)=O (configuration not stated) [Trichlormethiazide]
gametocyte viability (concentration: 1 µM): inactive: 88.5 | gametocyte viability (concentration: 10 µM): inactive: 94.3

Cc1c(-c2ccccc2)oc2c(C(=O)OCCN3CCCCC3)cccc2c1=O [Flavoxate hydrochloride]
gametocyte viability (concentration: 1 µM): inactive: 92 | gametocyte viability (concentration: 10 µM): inactive: 87

CN[C@@H]1[C@@H](O[C@H]2O[C@H](CO)[C@@H](N)[C@H](O)[C@H]2O)OC2C[C@@H](N)[C@@H](O[C@H]3[C@H](O)[C@@H](O)[C@H](N)C[C@@H]3N)OC2[C@@H]1O (some centres not stated) [Apramycin]
gametocyte viability (concentration: 1 µM): inactive: 87.9 | gametocyte viability (concentration: 10 µM): inactive: 88.3

CCC[C@@H]1C[C@@H](C(=O)N[C@@H]([C@H]2O[C@H](SC)[C@H](O)[C@@H](O)[C@H]2O)[C@H](C)Cl)N(C)C1 [Clindamycin hydrochloride]
gametocyte viability (concentration: 1 µM): inactive: 90.4 | gametocyte viability (concentration: 10 µM): inactive: 89.3

O=C(N[C@H](CO)[C@H](O)c1ccc([N+](=O)[O-])cc1)C(Cl)Cl [Chloramphenicol]
gametocyte viability (concentration: 1 µM): inactive: 82 | gametocyte viability (concentration: 10 µM): inactive: 80

Cc1ccc2c(c1)c1c3n2CCNC3CCC1 (configuration not stated) [Pirlindole mesylate]
gametocyte viability (concentration: 1 µM): inactive: 88.8 | gametocyte viability (concentration: 10 µM): inactive: 83.2

C=C1/C(=C\C=C2/CCC[C@]3(C)[C@@H]([C@H](C)CCCC(C)C)CC[C@@H]23)C[C@@H](O)C[C@@H]1O [Alfacalcidol]
gametocyte viability (concentration: 1 µM): inactive: 85.7 | gametocyte viability (concentration: 10 µM): inactive: 78.6

CCOc1ccc2ccccc2c1C(=O)N[C@@H]1C(=O)N2[C@@H]1SC(C)(C)[C@@H]2C(=O)O [Nafcillin sodium salt monohydrate]
gametocyte viability (concentration: 1 µM): inactive: 99.2 | gametocyte viability (concentration: 10 µM): inactive: 95.3

CN(C)C/C=C(/c1ccc(Br)cc1)c1cccnc1 [Zimelidine dihydrochloride monohydrate]
gametocyte viability (concentration: 1 µM): inactive: 86.1 | gametocyte viability (concentration: 10 µM): inactive: 85.7

CC(C)(CO)C(O)C(=O)NCCCO (configuration not stated) [Panthenol (D)]
gametocyte viability (concentration: 1 µM): inactive: 87.2 | gametocyte viability (concentration: 10 µM): inactive: 88.7

CCN(CC)CCNC(=O)c1cc(Cl)c(N)cc1OC [Metoclopramide monohydrochloride]
gametocyte viability (concentration: 1 µM): inactive: 85 | gametocyte viability (concentration: 10 µM): inactive: 84.7

Cn1cnc2c1c(=O)[nH]c(=O)n2C [Theobromine]
gametocyte viability (concentration: 1 µM): inactive: 88.2 | gametocyte viability (concentration: 10 µM): inactive: 92.5

COc1ccccc1Oc1c(NS(=O)(=O)c2ccc(C(C)(C)C)cc2)nc(-c2ncccn2)nc1OCCO [Bosentan]
gametocyte viability (concentration: 1 µM): inactive: 82.9 | gametocyte viability (concentration: 10 µM): inactive: 81.5

Nc1ccccc1S(N)(=O)=O [2-Aminobenzenesulfonamide]
gametocyte viability (concentration: 1 µM): inactive: 98 | gametocyte viability (concentration: 10 µM): inactive: 95.8

CC(C)[N+](C)(CCOC(=O)C1c2ccccc2Oc2ccccc21)C(C)C [Propantheline bromide]
gametocyte viability (concentration: 1 µM): inactive: 95.4 | gametocyte viability (concentration: 10 µM): inactive: 99.2

CN(C)CCC=C1c2ccccc2COc2ccccc21 [Doxepin hydrochloride]
gametocyte viability (concentration: 1 µM): inactive: 88.6 | gametocyte viability (concentration: 10 µM): inactive: 92.8

C#CCN[C@@H]1CCc2ccccc21 [Rasagiline]
gametocyte viability (concentration: 1 µM): inactive: 82.4 | gametocyte viability (concentration: 10 µM): inactive: 86.2

COc1ccc(-c2cc(=S)ss2)cc1 [Anethole-trithione]
gametocyte viability (concentration: 1 µM): inactive: 81.2 | gametocyte viability (concentration: 10 µM): inactive: 71.8

O=C(O)c1cn(C2CC2)c2cc(N3CCNCC3)c(F)cc2c1=O [Ciprofloxacin hydrochloride hydrate]
gametocyte viability (concentration: 1 µM): inactive: 93.9 | gametocyte viability (concentration: 10 µM): inactive: 92.1

C1CCC(C(CC2CCCCN2)C2CCCCC2)CC1 (configuration not stated) [Perhexiline maleate]
gametocyte viability (concentration: 1 µM): inactive: 83.4 | gametocyte viability (concentration: 10 µM): inactive: 90

CCc1nc(N)nc(N)c1-c1ccc(Cl)cc1 [Pyrimethamine]
gametocyte viability (concentration: 1 µM): inactive: 79 | gametocyte viability (concentration: 10 µM): inactive: 84.5

CC(=O)[C@@]1(O)CC[C@H]2[C@@H]3C[C@H](C)C4=CC(=O)C=C[C@]4(C)[C@@]3(F)[C@@H](O)C[C@@]21C [Fluorometholone]
gametocyte viability (concentration: 1 µM): inactive: 88.8 | gametocyte viability (concentration: 10 µM): inactive: 90.4

CC(C)NCC(O)COc1ccc(CCOCC2CC2)cc1 (configuration not stated) [Betaxolol hydrochloride]
gametocyte viability (concentration: 1 µM): inactive: 86.3 | gametocyte viability (concentration: 10 µM): inactive: 78.7

COc1cc(C(=O)NCc2ccc(OCCN(C)C)cc2)cc(OC)c1OC [Trimethobenzamide hydrochloride]
gametocyte viability (concentration: 1 µM): inactive: 84.8 | gametocyte viability (concentration: 10 µM): inactive: 73.9

CCCC1C(=O)N2C(N(C)C)=Nc3ccc(C)cc3N2C1=O (configuration not stated) [Azapropazone]
gametocyte viability (concentration: 1 µM): inactive: 89.5 | gametocyte viability (concentration: 10 µM): inactive: 87.5
